PubChem BioAssay AID1768 (National Center for Advancing Translational Sciences (NCATS), 2009)
The campaign covered roughly 270,000 compounds. About 620 (0.23%) were called active. Inconclusive means that the source gave no clear call. Such entries were picked first, then a sample of the others. Calls come from the whole dose curve; as a rule, active = well fitted inhibition curve with a large enough effect in the polarisation, with a control signal flat (not every such curve was filed as active); inconclusive = small, poorly fitted or top-dose-only effect, or effect the other way, or a change in a side signal; inactive = no such curve, though single readings can be large or run the other way; the % refers to the polarisation. A potency beside an inconclusive call is a rough fit, not a confirmed value. A note “side channel” means that the fit belongs to a control or component signal, not to the main read-out.

Molecular target: Menin (Homo sapiens) (UniProt O00255)
Assay: qHTS Assay for Inhibitors Targeting the Menin-MLL Interaction in MLL Related Leukemias: Competition With Texas Red Labeled MLL-derived Mutant Peptide; for FP activity change, negative = inhibition: % of control where 0% means no effect
Conditions: fluorescence polarization; FP activity change, negative = inhibition: at 61.6 µM (top of the series)
Potency is the fitted concentration of half-maximal effect; tags give direction and shape of the fitted curve or compound fluorescence and quenching.

UniProt O00255, sequence (O00255 whole entry, looked up): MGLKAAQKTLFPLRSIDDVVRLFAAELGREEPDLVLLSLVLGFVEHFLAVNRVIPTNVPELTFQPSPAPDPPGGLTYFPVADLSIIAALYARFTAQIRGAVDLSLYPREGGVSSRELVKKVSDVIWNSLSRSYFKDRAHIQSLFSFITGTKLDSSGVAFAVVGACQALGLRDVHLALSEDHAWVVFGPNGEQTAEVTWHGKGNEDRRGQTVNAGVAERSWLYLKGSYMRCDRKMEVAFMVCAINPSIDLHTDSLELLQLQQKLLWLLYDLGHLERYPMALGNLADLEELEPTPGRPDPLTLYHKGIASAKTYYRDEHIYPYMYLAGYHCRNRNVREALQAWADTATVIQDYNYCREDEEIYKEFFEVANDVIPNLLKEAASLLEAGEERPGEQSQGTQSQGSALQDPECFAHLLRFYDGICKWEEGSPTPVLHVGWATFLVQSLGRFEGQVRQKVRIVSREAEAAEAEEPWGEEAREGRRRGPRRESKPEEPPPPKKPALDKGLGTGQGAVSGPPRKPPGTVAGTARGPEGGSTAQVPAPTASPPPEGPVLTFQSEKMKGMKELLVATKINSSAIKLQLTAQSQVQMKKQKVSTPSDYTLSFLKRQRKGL

| Compound | Potency | FP activity change, negative = inhibition |
| --- | --- | --- |
| CCc1cc2cccc(C)c2nc1SCC(=O)c1ccc(NC(C)=O)cc1 | inconclusive: 28.2 µM [quencher, side channel, single point] |  |
| COc1cc(/C=C2/SC(N)=NC2=O)ccc1Oc1ccc([N+](=O)[O-])cc1[N+](=O)[O-] | inconclusive: 15.8 µM [quencher, side channel, partial curve] |  |
| O=C(CSc1ccc(-c2ccccn2)nn1)c1ccc([N+](=O)[O-])cc1 | inconclusive: 14.1 µM [quencher, side channel, partial curve] |  |
| Cc1c(O)ccc(/C=N/Nc2ncccc2[N+](=O)[O-])c1O | inconclusive: 25.1 µM [quencher, side channel, partial curve] |  |
| CCC1CC=CC2C1C(=O)N(Cc1ccccc1)C2c1ccc(OC)c(Cl)c1 (stereo unspecified) | inconclusive: 2.24 µM [fluorescent, side channel, full curve] |  |
| CC(C)(C)c1ccc(C(=O)Nc2sc3c(c2C(=O)O)CCC3)cc1 | inconclusive: 14.1 µM [quencher, side channel, partial curve] |  |
| Cc1nc2cc(NC(=O)Nc3ccc(Br)cc3)ccc2o1 | inconclusive: 8.91 µM [quencher, side channel, partial curve] |  |
| CCOc1ccc2nc(NC(=O)c3ccc(OC)c(S(=O)(=O)N4CCOCC4)c3)sc2c1 | inconclusive: 14.1 µM [quencher, side channel, partial curve] |  |
| O=C(CCCN1C(=O)/C(=C/c2cccs2)SC1=S)Nc1ccc(O)c(C(=O)O)c1 | inconclusive: 20 µM [quencher, side channel, partial curve] |  |
| Cn1cc(/C=C2\SC(=S)N(NC(=O)c3ccccc3)C2=O)c2ccccc21 | inconclusive: 31.6 µM [inhibitor, single point] |  |
| CC(C)(C)C(=O)Nc1ccc(Sc2ccc([N+](=O)[O-])cc2)cc1 | inconclusive: 14.1 µM [quencher, side channel, partial curve] |  |
| COc1ccc(O)c(/C=N/Nc2nc(Nc3ccccc3)nc(-n3nc(C)cc3C)n2)c1 | inconclusive: 6.31 µM [quencher, side channel, partial curve] |  |
| c1ccc2c(c1)OCCOCCOCCOCCO2 |  | inactive: 7.52% |
| Cc1ccc(Cn2c(SCC(=O)NCC3CCCO3)nc3c2c(=O)n(C)c(=O)n3C)cc1 (stereo unspecified) | inconclusive: 8.91 µM [fluorescent, side channel, partial curve] |  |
| Cc1cc(C)n(CC(=O)N/N=C/c2cc(Br)cc([N+](=O)[O-])c2O)n1 | inconclusive: 20 µM [quencher, side channel, partial curve] |  |
| CCOC(=O)Nc1cc(=O)c2ccccc2o1 |  | inactive: 2.45% |
| Cc1cccc(C(CC(=O)N2CCCC2)c2ccccc2)c1O (stereo unspecified) | inconclusive: 7.08 µM [inhibitor, single point] |  |
| CCn1c(C(=O)O)c(CC(=O)Nc2ccc(Br)cc2C)c2ccccc21 | inconclusive: 31.6 µM [quencher, side channel, single point] |  |
| CCOC(=O)c1ccc2[nH]c3c(c2c1)CCCC3 | inconclusive: 14.1 µM [quencher, side channel, partial curve] |  |

| Compound | Potency | FP activity change, negative = inhibition |
| --- | --- | --- |
| COCCCNc1nc(-c2ccc(Cl)cc2)nc2ccccc12 | inconclusive: 14.1 µM [quencher, partial curve] |  |
| Cc1ccc(S(=O)(=O)Nc2cccc(-c3ccc4nnc(C)n4n3)c2)s1 | inconclusive: 39.8 µM [inhibitor, single point] |  |
| O=C1C2CC=CCC2C(=O)N1c1cccc(OS(=O)(=O)c2ccc3ccccc3c2)c1 (stereo unspecified) | inconclusive: 31.6 µM [quencher, side channel, single point] |  |
| CC1(OC(=O)c2cnc3ccccc3n2)C(=O)C=C2C=C3CCCN3C=C2C1=O (stereo unspecified) |  | inactive: -9.5% [at 11.7 µM] |
| COc1ccc(N=C2C(=O)N3CCCc4cccc2c43)cc1 | inconclusive: 39.8 µM [inhibitor, single point] |  |
| NC(=O)CSC1=N/C(=C\c2ccco2)C(=O)N1c1ccc(OC(F)F)cc1 | inconclusive: 25.1 µM [quencher, side channel, partial curve] |  |
| N/C(=N\OC(=O)Cc1ccc([N+](=O)[O-])cc1)c1ccccn1 | inconclusive: 8.91 µM [quencher, side channel, full curve] |  |
| COC(c1ccccc1)c1nnc(CCC(=O)N(C)CCCC2CCCC2)o1 (stereo unspecified) | inconclusive: 7.94 µM [inhibitor, full curve] |  |
| O=C(O)C1C2CCC(C2)C1C(=O)NCc1ccco1 (stereo unspecified) | inconclusive: 0.631 µM [inhibitor, full curve] |  |
| COc1ccc(CC(=O)Nc2ccc(C(=O)Nc3nccs3)cc2)cc1OC | inconclusive: 22.4 µM [quencher, side channel, partial curve] |  |
| CC(C)c1ccc(C(=O)OCC(=O)NC2CCCC2)cc1 | inconclusive: 22.4 µM [inhibitor, single point] |  |
| N#Cc1c(Sc2ncc(C(F)(F)F)cc2Cl)nsc1C/C=N\OCc1c(F)cccc1Cl | inconclusive: 11.2 µM [quencher, side channel, partial curve] |  |
| CCOc1ccc(N(CC)S(=O)(=O)c2cccc3nsnc23)cc1 | inconclusive: 39.8 µM [quencher, side channel, single point] |  |
| O=C(NCc1nnc(SCc2ccccc2)n1-c1ccccc1)C12CC3CC(CC(C3)C1)C2 | inconclusive: 15.8 µM [fluorescent, side channel, partial curve] |  |
| CCc1ccc(NC(=O)c2c(C(=O)Nc3ccccc3)sc3nc(C)cc(=O)n23)cc1 | inconclusive: 39.8 µM [fluorescent, side channel, single point] |  |
| O=C(COC(=O)c1cc(-c2cccs2)nc2ccccc12)NC1CCS(=O)(=O)C1 (stereo unspecified) | inconclusive: 12.6 µM [quencher, side channel, partial curve] |  |
| CCOc1ccc(C(=O)Nc2nnc(NC(=S)Nc3ccccc3)s2)cc1 | inconclusive: 1.26 µM [quencher, side channel, full curve, poor fit] |  |
| CCCCC(CC)COC1(c2ccccc2)OC(=O)c2ccccc21 (stereo unspecified) | inconclusive: 7.94 µM [fluorescent, side channel, partial curve, poor fit] |  |
| Cn1c(C(=O)N2CCOCC2)cnc1Sc1ncc(C(F)(F)F)cc1Cl |  | inactive: 1.51% |

| Compound | Potency | FP activity change, negative = inhibition |
| --- | --- | --- |
| COc1ccc2[nH]c(C(=O)O)c(NS(=O)(=O)c3ccc(C)cc3C)c2c1 | inconclusive: 25.1 µM [quencher, side channel, partial curve] |  |
| O=C(Nc1cccc(Cl)c1)c1ccc(NCCCN2CCOCC2)c([N+](=O)[O-])c1 | inconclusive: 25.1 µM [quencher, side channel, single point] |  |
| C/C(=N\NC(=O)c1ccccn1)C12CC3CC(CC(C3)C1)C2 | inconclusive: 39.8 µM [inhibitor, single point] |  |
| CC(=C/C(=O)O)/C=C/c1ccc([N+](=O)[O-])cc1 | inconclusive: 39.8 µM [quencher, side channel, single point] |  |
| COc1ccccc1NS(=O)(=O)c1cc(NC(=O)c2cc[n+]([O-])cc2)ccc1N1CCCC1 | inconclusive: 10 µM [quencher, side channel, partial curve] |  |
| CN(C(=O)c1ccc(COc2ccccc2Br)o1)c1ccccc1 | inconclusive: 3.55 µM [fluorescent, side channel, full curve] |  |
| Cc1nc2ccc(S(=O)(=O)Nc3ccc(-c4nc5cccnc5s4)cc3)cc2s1 | inconclusive: 20 µM [quencher, side channel, single point] |  |
| O=C1C(c2ccccc2)SC(=Nc2ccccc2)N1S(=O)(=O)c1ccccc1 (stereo unspecified) | inconclusive: 28.2 µM [inhibitor, partial curve] |  |
| O=C(CNS(=O)(=O)c1ccc([N+](=O)[O-])cc1)N/N=C\c1ccc(O)cc1 | inconclusive: 8.91 µM [inhibitor, full curve, poor fit] |  |
| O=C(Nc1ccc(F)cc1)Nc1ccc(N2CCOCC2)c2nonc12 | inconclusive: 14.1 µM [quencher, side channel, partial curve] |  |
| CC(NC(=O)c1cc(-c2ccc3c(c2)OCO3)nc2ccccc12)C(C)(C)C (stereo unspecified) |  | inactive: 5.47% |
| Cc1sc(N/N=C/c2cc([N+](=O)[O-])ccc2O)nc1-c1ccccc1 | inconclusive: 5.62 µM [quencher, side channel, partial curve] |  |
| Cc1ccc(-c2csc(NC(=O)CSc3ncn(-c4ccccc4)n3)n2)cc1 | inconclusive: 39.8 µM [inhibitor, single point] |  |
| CCOCCCn1c(=NC(=O)c2cccnc2)c(C(=O)OCC)cc2c(=O)n3ccccc3nc21 |  | inactive: -0.999% |
| COc1cc(-c2noc(C)c2C#Cc2ccc(N)cc2)cc(OC)c1OC | inconclusive: 12.6 µM [quencher, side channel, partial curve] |  |
| CCCCOc1ccc(C(=O)NCCc2ccccc2)cc1 | inconclusive: 39.8 µM [fluorescent, side channel, single point] |  |
| Cc1cccc(CNc2ccnc(-c3cccc(NS(C)(=O)=O)c3)n2)c1 | inconclusive: 0.891 µM [quencher, side channel, full curve] |  |
| c1csc(-c2ccc(N3CCOCC3)nn2)c1 | inconclusive: 31.6 µM [inhibitor, partial curve] |  |
